# Structures can show the parent of a compound that is named as a salt. ± gives the standard deviation of the averaged measurements. Over roughly 1,300 compounds, “normalised cell viability” has its median near 1; the lowest 2% begin near 0.14. Some of the results follow.
# Tested on: V-C8 (BRCA2-deficient hamster cells)
# Test: normalised cell viability (fraction of plate median); higher = more viable cells (less toxic)
# Conditions: 5 µM
# How it was run: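 Cell viability was measured with a resazurin assay, normalised to the plate median (modified robust per cent of sample) and averaged over triplicate wells. Hamster V-C8 cells lacking BRCA2 and V-C8 cells with BRCA2 restored were seeded in 96-well plates. After 24 h, library drugs from 10 mM DMSO stocks were added at a final 5 μM in 100 μl medium and left for 3 days (screen 1) or 6 days (screen 2), with solvent-only wells alongside.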
Compound,normalised cell viability (treatment time: 3 days),normalised cell viability (treatment time: 6 days)
Nc1ccc(S(=O)(=O)Nc2ccccn2)cc1 [Sulfapyridine],1.02 ± 0.025,1.058 ± 0.0097
C[C@@H]1C[C@H]2[C@@H]3C[C@H](F)C4=CC(=O)C=C[C@]4(C)[C@@]3(F)[C@@H](O)C[C@]2(C)[C@@]1(O)C(=O)COC(=O)C(C)(C)C [Flumethasone pivalate],1.08 ± 0.079,1.03 ± 0.055
CCOc1ccccc1OC(c1ccccc1)C1CNCCO1 (stereo not drawn) [Reboxetine mesylate],0.966 ± 0.024,0.998 ± 0.021
CN(C)CCCN1c2ccccc2Sc2ccc(Cl)cc21 [Chlorpromazine hydrochloride],0.571 ± 0.11,0.642 ± 0.017
COc1ccc(CC2c3cc(OC)c(OC)cc3CC[N+]2(C)CCC(=O)OCCCCCOC(=O)CC[N+]2(C)CCc3cc(OC)c(OC)cc3C2Cc2ccc(OC)c(OC)c2)cc1OC (stereo not drawn) [Atracurium besylate],0.948 ± 0.059,0.979 ± 0.046
CC(=O)[C@H]1CC[C@H]2[C@@H]3CC=C4C[C@@H](O)CC[C@]4(C)[C@H]3CC[C@]12C [Pregnenolone],1.05 ± 0.06,1.06 ± 0.03
CCN(CCO)CCCC(C)Nc1ccnc2cc(Cl)ccc12 (stereo not drawn) [Hydroxychloroquine sulfate],0.365 ± 0.05,0.524 ± 0.048
CCCCN1CCCCC1C(=O)Nc1c(C)cccc1C (stereo not drawn) [Bupivacaine hydrochloride],0.967 ± 0.029,1.01 ± 0.044
CCOC(=O)NNc1nncc2ccccc12 [Todralazine hydrochloride],0.913 ± 0.039,1.04 ± 0.061
CC(C)(C)c1ccc(C(O)CCCN2CCC(C(O)(c3ccccc3)c3ccccc3)CC2)cc1 (stereo not drawn) [Terfenadine],0.13 ± 0.0051,0.1 ± 0.0041
CC(COc1ccccc1)NC(C)C(O)c1ccc(O)cc1 (stereo not drawn) [Isoxsuprine hydrochloride],1.02 ± 0.031,0.99 ± 0.014
CCCCNc1c(C(=O)OCC)c(C)nc2c1cnn2CC [Tracazolate hydrochloride],0.947 ± 0.034,1.03 ± 0.013
CCCCC1(COC(=O)CCC(=O)O)C(=O)N(c2ccccc2)N(c2ccccc2)C1=O [Suxibuzone],0.986 ± 0.024,1.07 ± 0.1
COc1cc(NC(C)CCCN)c2ncccc2c1 (stereo not drawn) [Primaquine diphosphate],0.937 ± 0.03,0.964 ± 0.07
COc1cc(-c2ccc(=O)[nH]n2)ccc1OC(F)F [Zardaverine],0.923 ± 0.023,0.93 ± 0.044
Cc1cc(-c2ccccc2)nnc1NCCN1CCOCC1 [Minaprine dihydrochloride],1.07 ± 0.012,1.01 ± 0.025
NC(N)=Nc1nc(CSCC/C(N)=N/S(N)(=O)=O)cs1 [Famotidine],1.14 ± 0.06,1.04 ± 0.017

Compound,normalised cell viability (treatment time: 3 days),normalised cell viability (treatment time: 6 days)
CC1=C(/C=C/C(C)=C/C=C/C(C)=C\C(=O)O)C(C)(C)CCC1 [Isotretinoin],1.02 ± 0.017,1.02 ± 0.033
CC/C(=C(/CC)c1ccc(O)cc1)c1ccc(O)cc1 [Diethylstilbestrol],1.06 ± 0.029,0.979 ± 0.075
CSc1ccc2c(c1)N(CCC1CCCCN1C)c1ccccc1S2 (stereo not drawn) [Thioridazine hydrochloride],0.121 ± 0.0035,0.0951 ± 0.0067
CN(C)[C@@H]1C(O)=C(C(N)=O)C(=O)[C@@]2(O)C(O)=C3C(=O)c4c(O)cccc4[C@@](C)(O)[C@H]3[C@H](O)[C@@H]12 [Oxytetracycline dihydrate],0.991 ± 0.015,0.945 ± 0.05
Cc1ccsc1/C=C/C1=NCCCN1C [Morantel tartrate],0.989 ± 0.043,1.05 ± 0.058
CN(C)c1ccc(O)c2c1C[C@H]1C[C@H]3[C@H](N(C)C)C(O)=C(C(N)=O)C(=O)[C@@]3(O)C(O)=C1C2=O [Minocycline hydrochloride],0.806 ± 0.009,0.886 ± 0.022
CCN(CC)CCNc1ccc(CO)c2sc3ccccc3c(=O)c12 [Hycanthone],0.182 ± 0.0069,0.183 ± 0.0059
O=C(COc1ccc(Cl)cc1)N1CCN(Cc2ccc3c(c2)OCO3)CC1 [Fipexide hydrochloride],1.07 ± 0.037,0.95 ± 0.055
CNC(C)CCC=C(C)C (stereo not drawn) [Isometheptene mucate],1.07 ± 0.044,1.02 ± 0.078
CN(Cc1cnc2nc(N)nc(N)c2n1)c1ccc(C(=O)N[C@@H](CCC(=O)O)C(=O)O)cc1 [Methotrexate],0.293 ± 0.011,0.261 ± 0.021
"CN(Cc1cnc2nc(N)nc(N)c2n1)c1ccc(C(=O)N[C@@H](CCC(=O)O)C(=O)O)cc1 (racemic) [Amethopterin (R,S)]",0.287 ± 0.021,0.238 ± 0.0053
Nc1nc(NC2CC2)c2ncn([C@H]3C=C[C@@H](CO)C3)c2n1 [Abacavir Sulfate],1.02 ± 0.1,0.937 ± 0.12
CCOC(=O)c1ccc(N)cc1 [Benzocaine],0.791 ± 0.027,0.927 ± 0.074
OC(CCCN1CCCCC1)(c1ccccc1)c1ccccc1 [Diphenidol hydrochloride],1.06 ± 0.037,1.05 ± 0.031
CCN(CC)CCOC(=O)C(c1ccccc1)c1ccccc1 [Adiphenine hydrochloride],0.976 ± 0.021,1.02 ± 0.039
Cc1ccc(S(=O)(=O)NC(=O)NN2CCCCCC2)cc1 [Tolazamide],0.997 ± 0.087,0.992 ± 0.051
C[C@]12CC[C@@H]3c4ccc(OS(=O)(=O)O)cc4CC[C@H]3[C@@H]1CCC2=O [Estropipate],1.04 ± 0.034,1.01 ± 0.057
